Source: the BET-seq Pho4 binding data (Le et al. 2018)
The list shows a part of the results. Values were computed here from the reads of four pooled replicates and scatter widely.

Molecular target: T1, Pho4 (S. cerevisiae) (UniProt P07270)
T1 sequence: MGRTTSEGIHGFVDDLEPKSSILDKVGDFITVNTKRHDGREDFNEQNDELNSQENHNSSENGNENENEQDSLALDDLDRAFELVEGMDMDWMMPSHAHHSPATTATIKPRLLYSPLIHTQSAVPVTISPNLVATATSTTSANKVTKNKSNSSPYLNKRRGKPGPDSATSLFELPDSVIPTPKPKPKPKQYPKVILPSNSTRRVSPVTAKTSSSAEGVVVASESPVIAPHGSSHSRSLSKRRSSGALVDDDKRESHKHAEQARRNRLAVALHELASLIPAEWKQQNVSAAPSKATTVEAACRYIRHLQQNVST
Test: relative binding free energy (BET-seq); higher = weaker binding
Details: reference: library average

| Sequence | relative binding free energy |
| --- | --- |
| AGTGGCACGTGAGGGT | 0.1 kcal/mol |
| GTCTTCACGTGGGGAA | 0.15 kcal/mol |
| TTGTGCACGTGGCTCG | -0.15 kcal/mol |
| ATCGGCACGTGGTCTG | -0.14 kcal/mol |
| CATGGCACGTGTAAGT | 0.11 kcal/mol |
| TGTAGCACGTGAAGGG | 0.26 kcal/mol |
| TGGGGCACGTGGAGGT | -0.03 kcal/mol |
| CGCTGCACGTGGTGGT | -0.19 kcal/mol |
| GACGTCACGTGTGCGG | 0.13 kcal/mol |
| ATTATCACGTGAGGCG | 0.26 kcal/mol |
| AGCATCACGTGTGTGG | -0.05 kcal/mol |
| GATTGCACGTGGTGCG | -0.04 kcal/mol |
| TGTGGCACGTGTCCAG | -0.16 kcal/mol |
| AGGAACACGTGCGGGG | -0.06 kcal/mol |
| GGTATCACGTGTGAGA | 0.19 kcal/mol |
| TTATTCACGTGCCGTG | 0.28 kcal/mol |
| AATAGCACGTGTCGTG | -0.05 kcal/mol |
| ATTTGCACGTGAAGTA | 0.11 kcal/mol |
| ACTTGCACGTGTGAGT | 0.11 kcal/mol |
| AAGGACACGTGTGGTC | 0.05 kcal/mol |
| TTGGACACGTGCGCGT | -0.18 kcal/mol |
| TGCGTCACGTGATATT | 0.17 kcal/mol |
| TTGAACACGTGTTCGG | -0.07 kcal/mol |
| AGGTGCACGTGAGTTG | 0.1 kcal/mol |
| CTGGTCACGTGCGTTG | 0.04 kcal/mol |

| Sequence | relative binding free energy |
| --- | --- |
| GACGGCACGTGGTGAG | -0.02 kcal/mol |
| GGGTACACGTGTGCTA | 0.05 kcal/mol |
| TGCGGCACGTGGCATT | -0.14 kcal/mol |
| GAATTCACGTGTCTGT | 0.37 kcal/mol |
| TATTTCACGTGTCCGG | 0.43 kcal/mol |
| GGGATCACGTGAGGTT | 0.43 kcal/mol |
| TCGGGCACGTGTTAAG | 0.07 kcal/mol |
| GCGGACACGTGTCGGT | 0.19 kcal/mol |
| TTGAGCACGTGTCGAG | -0.07 kcal/mol |
| CTTGGCACGTGATAAG | -0.07 kcal/mol |
| ACGGTCACGTGGTTAT | 0.15 kcal/mol |
| TGTAACACGTGGTTCT | -0.17 kcal/mol |
| AGGATCACGTGCGGGA | 0.11 kcal/mol |
| TGGTTCACGTGTCGAT | 0.2 kcal/mol |
| GGCAGCACGTGGGAGG | -0.21 kcal/mol |
| GACCTCACGTGTGGGT | 0.27 kcal/mol |
| TGAATCACGTGGAGGT | 0.13 kcal/mol |
| TCTATCACGTGTCGTT | 0.18 kcal/mol |
| CGTAGCACGTGTGAGA | 0.1 kcal/mol |
| GGTGGCACGTGGTGAG | -0.02 kcal/mol |
| CGAATCACGTGATGGG | 0.45 kcal/mol |
| TGTTTCACGTGTTCAA | 0.29 kcal/mol |
| GGTGGCACGTGTTGTC | 0.08 kcal/mol |
| AGTAGCACGTGTCTGT | -0.15 kcal/mol |
| TTGGACACGTGAATTA | 0.39 kcal/mol |

| Sequence | relative binding free energy |
| --- | --- |
| ATATGCACGTGTTATG | 0 kcal/mol |
| AAGTGCACGTGAGTTC | 0.31 kcal/mol |
| TTTTGCACGTGTCGGC | 0.13 kcal/mol |
| AATTACACGTGATGTA | 0.17 kcal/mol |
| TTAGGCACGTGTATTG | -0.05 kcal/mol |
| AGGATCACGTGCTTGT | 0.19 kcal/mol |
| TAGTTCACGTGTGGCC | 0.34 kcal/mol |
| GTCAGCACGTGTTATG | 0 kcal/mol |
| GTCAGCACGTGAGGGT | 0.22 kcal/mol |
| TATTGCACGTGCGTCT | -0.13 kcal/mol |
| GGTACCACGTGGAAGT | 0.09 kcal/mol |
| GGTCGCACGTGCGGTA | -0.09 kcal/mol |
| ATTTACACGTGGGTCA | 0 kcal/mol |
| CTGTTCACGTGGCTTA | 0.19 kcal/mol |
| GGTATCACGTGATAGT | 0.21 kcal/mol |
| GGCGTCACGTGAAAGT | 0.25 kcal/mol |
| CTGGACACGTGTGCTG | 0.1 kcal/mol |
| ATCTGCACGTGGTATG | -0.09 kcal/mol |
| GATGTCACGTGTGGGC | 0.2 kcal/mol |
| AGTAGCACGTGGGGCG | -0.16 kcal/mol |
| TATTCCACGTGATGTT | 0.17 kcal/mol |
| TTAGGCACGTGATTCT | -0.07 kcal/mol |
| AGGTTCACGTGTGCGA | 0.22 kcal/mol |
| AGGGGCACGTGGATGA | -0.14 kcal/mol |
| ATGTGCACGTGAGAGG | 0.28 kcal/mol |

| Sequence | relative binding free energy |
| --- | --- |
| TGTTTCACGTGTGTGT | 0.27 kcal/mol |
| TGTTTCACGTGGTGAA | 0.29 kcal/mol |
| GAGGGCACGTGCAGTT | 0.02 kcal/mol |
| TGATGCACGTGGATCG | -0.15 kcal/mol |
| ATTCGCACGTGGAATT | 0.15 kcal/mol |
| AGTGTCACGTGTAGGG | 0.04 kcal/mol |
| GGCTGCACGTGGATTG | 0.1 kcal/mol |
| CGTTGCACGTGTTTGC | 0.02 kcal/mol |
| TTCAGCACGTGCGTGT | -0.15 kcal/mol |
| GTGTTCACGTGGGGCC | 0.13 kcal/mol |
| TCACTCACGTGTAGGG | 0.2 kcal/mol |
| TCATTCACGTGTTTAT | 0.36 kcal/mol |
| GGATGCACGTGCATTT | 0.06 kcal/mol |
| GATTTCACGTGGTACT | 0.19 kcal/mol |
| TCCTTCACGTGTGGTT | 0.35 kcal/mol |
| GGTTCCACGTGTGCGG | 0.02 kcal/mol |
| ATAGTCACGTGGCGAG | -0.02 kcal/mol |
| TTATGCACGTGGTGGG | -0.03 kcal/mol |
| AAGTGCACGTGAGGAT | 0.39 kcal/mol |
| AGGTACACGTGAAGGG | 0.27 kcal/mol |
| TTTATCACGTGAGGTG | 0.37 kcal/mol |
| TCTTGCACGTGGATGT | -0.07 kcal/mol |
| AGTAACACGTGAAGTA | 0.18 kcal/mol |
| TGGGGCACGTGATAAT | 0 kcal/mol |
| ATCAGCACGTGAGTTA | 0.15 kcal/mol |

| Sequence | relative binding free energy |
| --- | --- |
| AATGACACGTGCGTGA | 0.08 kcal/mol |
| CATCTCACGTGTGTTG | 0.2 kcal/mol |
| TGTTGCACGTGATCTA | 0.05 kcal/mol |
| AGAAGCACGTGTTTTA | -0.14 kcal/mol |
| TGTAGCACGTGGGGAG | -0.19 kcal/mol |
| TAGGGCACGTGCGGTA | -0.15 kcal/mol |
| GTGACCACGTGTTCGG | 0.05 kcal/mol |
| GTTCTCACGTGGGTGT | 0.11 kcal/mol |
| AGGGGCACGTGGTATC | -0.24 kcal/mol |
| CGTGACACGTGGGCGG | -0.09 kcal/mol |
| GGTGTCACGTGATTGG | 0.36 kcal/mol |
| GTTGGCACGTGCGGAT | -0.19 kcal/mol |
| ACTGGCACGTGGACGG | 0 kcal/mol |
| CTGGTCACGTGGATGA | 0.1 kcal/mol |
| CGGGCCACGTGCAGGG | -0.06 kcal/mol |
| GGACGCACGTGATTGG | 0.02 kcal/mol |
| TTTGTCACGTGAGGAA | 0.31 kcal/mol |
| TATGACACGTGCGGGC | -0.03 kcal/mol |
| GGCGGCACGTGTAGGA | -0.02 kcal/mol |
| AACTGCACGTGGGGGT | -0.25 kcal/mol |
| TTGGGCACGTGTAACA | 0.05 kcal/mol |
| GCGGGCACGTGGGTTA | -0.08 kcal/mol |
| TCGTGCACGTGGGGGT | -0.18 kcal/mol |
| CAGTTCACGTGTATGT | 0.35 kcal/mol |
| TGTAGCACGTGGCGCT | -0.27 kcal/mol |

| Sequence | relative binding free energy |
| --- | --- |
| TAGGGCACGTGTGACT | -0.05 kcal/mol |
| TCTTGCACGTGGGGAG | -0.19 kcal/mol |
| GTTATCACGTGTGTGA | 0.32 kcal/mol |
| GGTATCACGTGGCCGG | 0.08 kcal/mol |
| CTCTTCACGTGTTTTT | 0.3 kcal/mol |
| TTGTCCACGTGAGATG | 0.42 kcal/mol |
| GGAGGCACGTGATTTA | -0.04 kcal/mol |
| AAAGGCACGTGAAATG | 0.18 kcal/mol |
| TTAGTCACGTGTTGCC | 0.1 kcal/mol |
| AATGTCACGTGAGTAG | 0.25 kcal/mol |
| CTCATCACGTGTGGTG | 0.33 kcal/mol |
| TATCTCACGTGTTGGG | 0.18 kcal/mol |
| GGGTTCACGTGGCGGG | 0.24 kcal/mol |
| TTTATCACGTGTTCGG | 0.19 kcal/mol |
| CTTTGCACGTGTAGTG | 0.05 kcal/mol |
| CGGCTCACGTGGGGGC | -0.01 kcal/mol |
| TTGTGCACGTGCACTG | -0.16 kcal/mol |
| AAGTTCACGTGTGGGC | 0.22 kcal/mol |
| CAAGTCACGTGTTGTT | 0.2 kcal/mol |
| GTTTCCACGTGGAGGG | 0.02 kcal/mol |
| TTTATCACGTGGGGAA | -0.04 kcal/mol |
